The values below come from paper PMC12136788.

Some of the results follow.

First the molecules themselves.
T1: UNK ZnF1-6 (called full-length) (human, UniProt Q9C0B0 30-357)
T1 sequence: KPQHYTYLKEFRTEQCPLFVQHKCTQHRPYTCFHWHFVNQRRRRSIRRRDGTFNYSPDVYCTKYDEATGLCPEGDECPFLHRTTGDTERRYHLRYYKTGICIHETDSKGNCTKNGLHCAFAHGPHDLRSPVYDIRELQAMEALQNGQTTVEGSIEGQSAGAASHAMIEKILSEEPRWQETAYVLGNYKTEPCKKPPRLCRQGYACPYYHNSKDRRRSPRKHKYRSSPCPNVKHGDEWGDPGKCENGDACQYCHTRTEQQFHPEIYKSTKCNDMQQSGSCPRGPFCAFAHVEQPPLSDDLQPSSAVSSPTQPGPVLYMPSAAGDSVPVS

B1: chr13:108210031:108210147:-|CDS|ENSG00000174405|unk|total|mutant (ssRNA)
RNA: GGGAGUUCUACAGUCCGACGAUCAUGGUUAAUAAUAAAAAGCCCGGGCAUGAGACUCUGAGAAAGAGGUAUGAGAUUCUCCGCCGUAUUUUUACACCAAUUCCAGGCCGAACCGAAACCGUGCAGAAAACACAAGCUCAUACUCAACAGAGGAUUGAGCAUCA
B2: chr13:38882223:38882324:+|3pUTR|ENSG00000150893|msi1|total|mutant (ssRNA)
RNA: GGGAGUUCUACAGUCCGACGAUCAGAAAAAUAAGGUCAGGAGAAAAAGAAUAAUGCCUACAGAUUAUCCUUCAGAUGCUGGCCCGAAUCCCCUUUGACUUCCCGCCAUAAGCUGGCCACAUUGGACAUCUUGGUCACUGCAGACAACAGAGGAUUGAGCAUCA
B3: chr18:67510860:67510961:-|3pUTR|ENSG00000171451|msi1|total|mutant (ssRNA)
RNA: GGGAGUUCUACAGUCCGACGAUCACUAAUAAUACUUACCAACCCACUUUGUGGAUAUGAAUCAGAAGAGUUUGUUUAUUCUUCCGUGUGUGUGUGUGUGUGCACGCGUGUAUGUGUUCAGUGUUGUUUGCACAGAGAGAUUGUCAACAGAGGAUUGAGCAUCA
B4: chr3:98799561:98799662:-|CDS|ENSG00000057019|msi1|total|mutant (ssRNA)
RNA: GGGAGUUCUACAGUCCGACGAUCUUCAGUUGGUCAGCCCUCCACAUCCACUUUCAAGGCUACGGGGAACCAACCUCCCCCACCCGUGGGAACUUACAAUACACUUCUCUCCAGGACUGACAGCUGCUCCUCAGCCCAGGCCCACAACAGAGGAUUGAGCAUCA
B5: chr4:76160418:76160736:-|3pUTR|ENSG00000138760|msi1|FALSE|unique (ssRNA)
RNA: GGGAGUUCUACAGUCCGACGAUCAGUUCCUUCCUCAGUUUCAGUUCUUUCCAGUGUUUUGUAGCUCACUGUCACUCACUGAAUAGAGAAACGUGUGCCCUAUACUUCCUGUGACAAUCAUUUUGCUGACAGAAUGAUGGAUGUCAACAGAGGAUUGAGCAUCA
B6: ENSG00000115464:stop:overlap|stop_codon|ENSG00000115464|stop_codon|NA|stop_codon (ssRNA)
RNA: GGGAGUUCUACAGUCCGACGAUCUCAGAAAGGAACAUACUCUCAAAAUAUUUACUUAUAUCAAUUCCUGGACACAGAGGAUGUAGAAGUACCAUUGCAUUUGCUUCGUUAUGUAUGUUUGUUUUGUGGGAAAAAUGGCCUUUCCAACAGAGGAUUGAGCAUCA
B7: chr1:235808650:235808751:-|CDS|ENSG00000143669|unk|FALSE|unique (ssRNA)
RNA: GGGAGUUCUACAGUCCGACGAUCUGGAAAUGGGAUGCUUUAAAGGCUUAUCAGAACUUUGUUUUUGAAGAAGACAGAUUACAUAGUAUACAGAUUGCAAAUCACAUUUGCAAUUUAAUCCAGAAAGGCAAUAUAGUUGUUCAGCAACAGAGGAUUGAGCAUCA
B8: chr11:119314942:119315043:-|CDS|ENSG00000076706|msi1|total|mutant (ssRNA)
RNA: GGGAGUUCUACAGUCCGACGAUCGGGAGACUCUGCCCCUCUUGCCGCCCAGGACCCUUCUCCUCCUCUGUGUCUCCUCCCAUCCGGUCCACAAGGAGAAGCGGACGCUCAUCUUCCGUGUGCGCCAGGGCCAGGGCCAGAGCGCAACAGAGGAUUGAGCAUCA
B9: chr19:54923508:54923872:-|three_prime_utr|ENSG00000167634|control|control|control (ssRNA)
RNA: GGGAGUUCUACAGUCCGACGAUCCGGGAUUCGGGUCUCUAAGAUGUCUUAUGAAUGCAGGUCAGAGGGUCACAUGUUAACACUAGAGUCUGUCGAGAGGUAGGAUUUGACACUGGUUUUCUCACUAUUUUUGGGAGAUUCUGCCAACAGAGGAUUGAGCAUCA
B10: chr10:128104542:128104643:-|CDS|ENSG00000148773|msi1|total|mutant (ssRNA)
RNA: GGGAGUUCUACAGUCCGACGAUCAAGUGAUGAGAAAAAUAUCAACACAUUUGUGGAAACUCCAGUGCAGAAACUGGACCUGCCCGGAAAUUUACCUGGCAGCAAGAGACAGCCACAGACUCCUAAGGAAAAGGCUGAGGCUCUCAACAGAGGAUUGAGCAUCA
B11: chr6:122453778:122453910:-|CDS|ENSG00000111897|unk|FALSE|unique (ssRNA)
RNA: GGGAGUUCUACAGUCCGACGAUCCCUUUCAGUGUGGUUUUAUGUAGGCAUGGCAGGUGCCUUUUGUUUCAUCCUCAUACAACUAGUCUUACUUAUUGAUUUUGCACAUUCAUGGAAUGAAUCGUGGGUUGAAAAAAUGGAAGACAACAGAGGAUUGAGCAUCA
B12: chr19:57572896:57572997:-|CDS|ENSG00000083817|unk|total|mutant (ssRNA)
RNA: GGGAGUUCUACAGUCCGACGAUCCAUCGGAGAAUCCACACUGGAGAAAGGCCUUAUGUGUGUGGUCAGUGUGGGAAAUCAUUCCGCCAAAGAGCCACCCUCAUUAAACAUCACAGAGUUCACACUGGAGAAAGGCCUUACGAGCAACAGAGGAUUGAGCAUCA
B13: chr7:65954205:65954306:+|CDS_3pUTR|ENSG00000196715|msi1_unk|FALSE|overlapping (ssRNA)
RNA: GGGAGUUCUACAGUCCGACGAUCCAUCUGCAUCGUCACGUACGUGCUGAACUUCCUUCUUCUCAUUAUCAACUACAAACGACUAGUUUACUUGAACGAGGCCUGGAAGCGGCAGCUGCAACCCAAGCAGGACUGACGCCCGACCAACAGAGGAUUGAGCAUCA
B14: chr6:145799413:145799514:-|3pUTR|ENSG00000118496|msi1|FALSE|bound_elsewhere (ssRNA)
RNA: GGGAGUUCUACAGUCCGACGAUCUUAUCUCACAUACUUACAACUCAACACACAGAGUGACCAUGUGCAGCUUUCUUUUUUGUUAGAUGCCACAUCCGAAGACUCAUCGCAGUGUGUUAUAUGACAGGACAAAGCAAAAACAAACAACAGAGGAUUGAGCAUCA
B15: chr19:21971193:21974807:-|CDS|ENSG00000160321|control|control|control (ssRNA)
RNA: GGGAGUUCUACAGUCCGACGAUCCACAAGAAAAUUCAUACUGGAGAGAAACCCUACAAAUGUGAAGAAUGUGGCAAAGCCUUUAGUACGUUCUCAAUCCUCACUAAACAUAAGGUAAUUCAUACUGGAGAGAAACCCUACAAACAACAGAGGAUUGAGCAUCA
B16: chr3:25618756:25618858:-|CDS|ENSG00000077097|unk|FALSE|unique (ssRNA)
RNA: GGGAGUUCUACAGUCCGACGAUCUAUAUAAGUUAAAAUACCAGUACAGAUCUAUAUGAUCUGCAAAGUAUAUGUGUUUUGCUUAGGUACUUUUUGAUCAUAUGGGAUGUCUGAAGAAAUAUGAAACUGUGCAAGACAUUCUGACAACAGAGGAUUGAGCAUCA
B17: chr9:101390585:101390694:-|CDS|ENSG00000136897|unk|FALSE|unique (ssRNA)
RNA: GGGAGUUCUACAGUCCGACGAUCUAAUUGGCAAGACAUCUCCCUGGAAGAUAGUCGUCUAAAGUUCAAUCUUCUGGCUCAUUUAGCUGAUGACUUGGGUCAUGUAGUCCCUAACUCCAGACUCCACCAGAUGUGCAGGGUUAGCAACAGAGGAUUGAGCAUCA
B18: chr3:48857559:48857660:-|3pUTR|ENSG00000178537|unk|total|mutant (ssRNA)
RNA: GGGAGUUCUACAGUCCGACGAUCGGCUGAAGGCUGCUCAAGUUCACUUCUGGAUGCUGGAAGCUGUCGUUGAGGAGAAGGAGCCGUAAGCAGAACUAAGCAGUCUUGGAGGGCAAGGGGAGGGGAAUGGUGAGAUCCGAGCCCCAACAGAGGAUUGAGCAUCA
B19: chr19:18929200:18929442:-|three_prime_utr|ENSG00000051128|control|control|control (ssRNA)
RNA: GGGAGUUCUACAGUCCGACGAUCCGGGGCUGGUUUUCUAUGAACGAUUCCGGCCUGGGAUGCGGGCCAGGCUGCAGGCGGCAUAGUUGGGCCCAUUCGUCCUGGAAAGGGACUGGGGGGUCCCAACUUAGCCCUGGGUGGGCCCAACAGAGGAUUGAGCAUCA
B20: chr17:42200006:42200107:-|3pUTR|ENSG00000173757|unk|FALSE|unique (ssRNA)
RNA: GGGAGUUCUACAGUCCGACGAUCAAGCUGCCGUUUGCCUUGGCUUGGUUUCAUACACUGAUUUAUUUUUCUAUGCCAGGCAGUAGAGUCUCUCUGCCUCUGAGGAGCAGGCUACCCGCAUCCCACUCAGCCCCUCCCUACCCCCAACAGAGGAUUGAGCAUCA
B21: chr10:89774496:89774597:+|3pUTR|ENSG00000138182|msi1|FALSE|bound_elsewhere (ssRNA)
RNA: GGGAGUUCUACAGUCCGACGAUCAAGAUCUCAAGUCUUUAAUUAGAAUGUCUCACUUAUUUUGUAAACAUUUUGUGGGUACAUAGUACAUGUAUAUAUUUACGGGGUAUGUGAGAUGUUUUGACACAGGCAUGCAAUGUGAAACAACAGAGGAUUGAGCAUCA
B22: chr10:131940083:131940120:+|CDS_3pUTR|ENSG00000175470|msi1_unk|total|mutant (ssRNA)
RNA: GGGAGUUCUACAGUCCGACGAUCAUAUAAUGUUUACAGCACCUUUCAAAGUCAUGAACCGGAGUUUGACUAUUUGAAAAGUCCCGAAAUUGAGGAAAAAAUUAAUAAAAUCCGGUGGUUACCACAACAGAAUGCUGCUCAUUUCAACAGAGGAUUGAGCAUCA

This assay addresses T1, UNK ZnF1-6 (called full-length). Put plainly: nsRBNS (natural sequence RNA bind-n-seq); RBNS binding buffer (assumed for nsRBNS): 25 mM Tris pH 7.5, 150 mM KCl, 3 mM MgCl2, 0.01% Triton X-100, 500 ug/ml BSA, 20 U/ml SUPERase-In, 4 C; UNK is unkempt and MSI1 is Musashi-1; names of the RNAs are library labels; protein concentration not given here; high values mean tight binding.
The molecule B1 displayed a binding signal of 0.726 enrichment R.

Take B2: the binding signal was 0.445 enrichment R.

For B3, the binding signal turned out to be 0.339 enrichment R.

The molecule B4 gave a binding signal of 0.729 enrichment R.

Molecule B5 gave a binding signal of 0.297 enrichment R.

For the molecule B6, the binding signal turned out to be 0.937 enrichment R.

B7 came in with a binding signal of 0.599 enrichment R.

The molecule B8 gave a binding signal of 1.21 enrichment R.

In turn, B9 gave a binding signal of 0.765 enrichment R.

In the case of B10, the binding signal was 0.613 enrichment R.

The molecule B11 yielded a binding signal of 0.596 enrichment R.

The molecule B12 displayed a binding signal of 0.502 enrichment R.

The molecule B13 returned a binding signal of 0.834 enrichment R.

On to B14, for which the binding signal was found to be 0.267 enrichment R.

For B15, the binding signal stood at 0.239 enrichment R.

B16 gave a binding signal of 0.4 enrichment R.

For B17, the binding signal stood at 0.572 enrichment R.

In turn, B18 had a binding signal of 1.01 enrichment R.

B19 showed a binding signal of 0.919 enrichment R.

In turn, B20 came in with a binding signal of 0.936 enrichment R.

For the molecule B21, the binding signal came out at 0.474 enrichment R.

B22 came in with a binding signal of 0.554 enrichment R.
